Assay results published in the supplement of paper PMC12340641.
In all, about 1,000 compounds were measured (“relative growth recovery (pomalidomide 10 uM = 100%, DMSO = 0%)”: median about -1.6, highest 2% from about 21 on). This is one part of the list.

system: HEK293FT dCK*-IKZF1; assay: relative growth recovery (pomalidomide 10 uM = 100%, DMSO = 0%); higher = more growth rescue (IKZF1 fusion degradation); details: compound concentration: 5 uM; AraC concentration: 0.3 uM; overnight pretreatment + 4 days AraC
Method: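 Growth recovery screen of the molecular-glue-like (Specs) library. HEK293FT cells expressing a dCK*-IKZF1 fusion (primary) or dCK* alone (counter) were pretreated overnight with compound at 5 uM, then given 0.3 uM AraC for 4 days. Hoechst nuclei were counted by imaging. Primary: normalised to pomalidomide (100%) and DMSO (0%), mean of 2 replicates. Counter: normalised to no-AraC (100%) and AraC+DMSO (0%), single replicate.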

Structure (SMILES) | relative growth recovery
COc1ccc2[nH]c(SCC(=O)Nc3ncccn3)nc2c1 | 1.53%
Cc1cnc(Nc2cccc(C3CCCN3C(=O)CCCc3ccc(F)cc3)n2)s1 (stereo unspecified) | 0.955%
Cc1cc(C)nc(NS(=O)(=O)c2ccc(NC(=O)c3cc4ccccc4oc3=O)cc2)n1 | -5.23%
Cc1cc(C)nc(NS(=O)(=O)c2ccc(NC(=O)c3ccccc3Br)cc2)n1 | -5.04%
Cc1cnc(Nc2cccc(C3CN(C(=O)C4CCCCC4)CCO3)n2)s1 (stereo unspecified) | -11.7%
COc1cc(NS(=O)(=O)c2ccc(NC(=O)c3ccc(C)cc3)cc2)nc(OC)n1 | -3.06%
Cc1ccc(OCC(=O)Nc2ccc(S(=O)(=O)Nc3ccccn3)cc2)c(C)c1 | -2.3%
O=C1CCC(N2C(=O)c3cccc(NCc4ccc(C(=O)O)cc4)c3C2=O)C(=O)N1 (stereo unspecified) | 3.17%
COc1cc(NS(=O)(=O)c2ccc(Nc3nc(-c4ccc(Cl)cc4)cs3)cc2)nc(OC)n1 | -3.09%
CNC(=O)C1(c2cccc(Nc3ncc(C)s3)n2)CCN(C(=O)C2CCCCC2)CC1 | -16.6%
COCC(C)NC(=O)CN1CCC(c2cccc(Nc3nccs3)n2)CC1 (stereo unspecified) | 4.26%
CC(=O)N1CCCC1c1csc(Nc2ccccn2)n1 (stereo unspecified) | -4.06%
CC(=O)Nc1ccc(Oc2ccc3c(c2)C(=O)N(c2cccc(C)c2)C3=O)cc1 | -2.68%
Cc1csc(Nc2cccc(C3CCCN3C(=O)c3ccc4[nH]c(C(C)C)nc4c3)n2)n1 (stereo unspecified) | 36.3%
Cc1cc(C)nc(NS(=O)(=O)c2ccc(NC(=O)COc3ccccc3Cl)cc2)n1 | -6.68%
CC(Oc1ccccc1)C(=O)Nc1ccc(S(=O)(=O)Nc2ncccn2)cc1 (stereo unspecified) | -0.515%
Cc1cnc(Nc2cccc(C3CN(C(=O)Cn4cnc5ccccc54)CCO3)n2)s1 (stereo unspecified) | -9.44%
Cc1ccc2[nH]c3nc(SCC(=O)Nc4ccc(F)cc4)nnc3c2c1 | -0.35%
COc1cc(NS(=O)(=O)c2ccc(NC(=S)NC(=O)/C=C/c3ccccc3)cc2)nc(OC)n1 | -2.48%
COc1ccc2[nH]c3nc(SCC(=O)Nc4cc(Cl)ccc4OC)nnc3c2c1 | -18.5%
CC(=O)c1ccc(N2C(=O)c3ccc(Oc4ccccc4)cc3C2=O)cc1 | -18.1%
Cc1cnc(Nc2cccc(C3CCN(C(=O)C4CCC4)CC3)n2)s1 | -17.7%
NCC(=O)N1CCC(c2cccc(Nc3ncc(Br)s3)n2)CC1 | -17.1%
CCNc1nc(NCC)nc(NS(=O)(=O)c2ccc(N)cc2)n1 | 3.4%

Structure (SMILES) | relative growth recovery
CC(C)(C)c1ccccc1OCC(=O)Nc1ccc(S(=O)(=O)Nc2ccccn2)cc1 | 2.13%
CC(=O)Nc1ccc(S(=O)(=O)Nc2ccc(Cl)cn2)cc1 | 3%
Cc1ccc(OCC(=O)Nc2ccc(S(=O)(=O)Nc3nc(C)cc(C)n3)cc2)c(C)c1 | -3.39%
COc1cccc(CCC(=O)N2CCOC(c3cccc(Nc4ncc(C)s4)n3)C2)c1 (stereo unspecified) | 15.8%
Cc1nc(Nc2cccc(C3CCCN3C(=O)c3n[nH]c4c3CCCC4)n2)sc1C (stereo unspecified) | 14.3%
Nc1ccc(S(=O)(=O)Nc2nccc(/C=C/c3ccc([N+](=O)[O-])cc3)n2)cc1 | 2.31%
COCCNC(=O)C1(c2cccc(Nc3ncc(C)s3)n2)CCN(C(=O)C2CCCCC2)CC1 | -5.38%
CCCc1cnc(Nc2cccc(C3CCN(C(=O)C4CCCCN4CCCO)CC3)n2)s1 (stereo unspecified) | -14.9%
Cc1ccc(C)c2c1[nH]c1nc(SCC(=O)Nc3cccc(F)c3)nnc12 | -2.81%
Cc1csc(Nc2cccc(C3CN(C(=O)COc4c(C)cccc4C)CCO3)n2)n1 (stereo unspecified) | 22.3%
COc1ccc(C(C)(C)C(=O)N2CCCC2c2cccc(Nc3nc(C)cs3)n2)cc1 (stereo unspecified) | -1.8%
Cc1ccnc(NS(=O)(=O)c2ccc(NC(=O)C3c4ccccc4Oc4ccccc43)cc2)n1 | -0.965%
Cc1cc(C)nc(NS(=O)(=O)c2ccc(Nc3nc(-c4c(C)nc5ccccn45)cs3)cc2)n1 | -2.69%
COc1ccccc1CCC(=O)N1CCC(c2cccc(Nc3ncc(C)s3)n2)CC1 | 19%
Cc1cnc(Nc2cccc(CC3CCN(C(=O)c4cccc(Cl)c4)CC3)n2)s1 | -11.5%
Cc1ccc(Nc2nc(C3CCCN(CC(N)=O)C3)cs2)nc1 (stereo unspecified) | -5.75%
COc1ccc(CCC(=O)N2CCOC(c3cccc(Nc4nc(C)cs4)n3)C2)cc1 (stereo unspecified) | 32.4%
CC(=O)Nc1ccc(Oc2ccc3c(c2)C(=O)N(c2ccc4ccccc4c2)C3=O)cc1 | -1.51%
Cc1nc(Nc2cccc(C3CCCN3C(=O)COc3ccc(F)cc3)n2)sc1C (stereo unspecified) | 14.4%
CCOc1ccccc1C(=O)Nc1ccc(S(=O)(=O)Nc2nc(C)cc(C)n2)cc1 | 2.54%
O=C(Nc1ccc(S(=O)(=O)Nc2ncccn2)cc1)c1cncc(Br)c1 | -2.98%
CC(C)(C)N1CC(C(=O)Nc2ccc(S(=O)(=O)Nc3ncccn3)cc2)CC1=O (stereo unspecified) | 1.21%
O=C(COc1cccc(Cl)c1)Nc1ccc(S(=O)(=O)Nc2ccccn2)cc1 | -0.93%
Cc1ccc(C(=O)Nc2ccc(S(=O)(=O)Nc3ccccn3)cc2)cc1C | -2.5%

Structure (SMILES) | relative growth recovery
CCCOc1cccc(C(=O)Nc2ccc(S(=O)(=O)Nc3nc(C)cc(C)n3)cc2)c1 | -1.4%
COC(=O)C(c1cccc(Nc2ncc(C)s2)n1)C1CCN(C(=O)c2cccc(F)c2F)CC1 (stereo unspecified) | -0.07%
COCC(=O)N1CCC(c2cccc(Nc3nc(C)cs3)n2)CC1 | 8.4%
Cc1ccc2[nH]c3nc(SCC(=O)Nc4cc(Cl)ccc4C)nnc3c2c1 | 1.78%
Cc1csc(Nc2cccc(C3CCCN3C(=O)CO)n2)n1 (stereo unspecified) | 1.4%
COc1cccc(OC)c1C(=O)N1CCOC(c2cccc(Nc3ncc(C)s3)n2)C1 (stereo unspecified) | 1.18%
Cc1cc(C)nc(NS(=O)(=O)c2ccc(NC(=O)CSc3nc4c(cc3C#N)CCC4)cc2)n1 | -6.17%
COC(=O)C(c1cccc(Nc2ncc(C)s2)n1)C1CCN(C(=O)C2(NC(=O)OC(C)(C)C)CCCCC2)CC1 (stereo unspecified) | -4.12%
CNC(=O)C1(c2cccc(Nc3ncc(C)s3)n2)CN(S(=O)(=O)c2cn(C)cn2)CCO1 (stereo unspecified) | 0.555%
Cc1ccc(Nc2nc(-c3sc(NC(=O)c4ccccc4)nc3C)cs2)nc1 | 111%
NCC(=O)N1CCC(c2cccc(Nc3ncc(Cl)s3)n2)CC1 | -19.4%
COc1cccc(C(=O)Nc2ccc(S(=O)(=O)Nc3nc(C)cc(C)n3)cc2)c1 | -1.65%
Cn1cc(/C=C/C(=O)N2CCC(c3cc4ccccc4c(Nc4nccs4)n3)CC2)cn1 | -18.7%
CCC(CC)C(=O)Nc1ccc(S(=O)(=O)Nc2ncccn2)cc1 | -0.205%
CCCCc1cnc(Nc2cccc(C3CCN(C(=O)C(C)(C)NC(=O)OC(C)(C)C)CC3)n2)s1 | -15.7%
NC(=O)CN1CCCC1c1csc(Nc2ccccn2)n1 (stereo unspecified) | -2.02%
Cc1cnc(Nc2cccc(C3CN(C(=O)C4CC4c4ccc(Cl)cc4)CCO3)n2)s1 (stereo unspecified) | 28.4%
COc1ccccc1N1C(=O)c2ccc(Oc3ccc(N)cc3)cc2C1=O | 2.65%
COc1cc(NS(=O)(=O)c2ccc(Nc3nc(-c4cccs4)cs3)cc2)nc(OC)n1 | 0.1%
O=C(Nc1ccc(S(=O)(=O)Nc2ncccn2)cc1)c1ccc([N+](=O)[O-])cc1 | -0.33%
COc1ccc(-c2csc(Nc3ccc(S(=O)(=O)Nc4nc(C)cc(C)n4)cc3)n2)cc1 | -3.44%
Cc1ccn(CCC(=O)N2CCC(c3cccc(Nc4ncc(C)s4)n3)CC2)n1 | -3.61%
N#CCN1CCCC(c2cccc(Nc3nc(C(=O)N4CCNC(=O)C4)cs3)n2)C1 (stereo unspecified) | 5.07%
Cc1ccc(CCC(=O)Nc2ccc(S(=O)(=O)Nc3ncccn3)cc2)cc1 | 0.96%

Structure (SMILES) | relative growth recovery
O=S(=O)(Nc1ccc(S(=O)(=O)Nc2ncccn2)cc1)c1ccccc1 | 2.94%
Cc1nc(Nc2cccc(C3CCCN3C(=O)CCc3nc4ccccc4[nH]3)n2)sc1C (stereo unspecified) | -2.88%
Nc1ccc(Oc2ccc3c(c2)C(=O)N(c2ccccc2)C3=O)cc1 | 2.54%
O=C(/C=C/c1ccccc1)N1CCCC1c1csc(Nc2ccccn2)n1 (stereo unspecified) | -2.08%
CN(C)C(=O)CN1CCC(c2csc(Nc3ccccn3)n2)CC1 | 2.02%
Cc1ccnc(NS(=O)(=O)c2ccc(NC(=O)CSc3nc(C)cc(=O)[nH]3)cc2)n1 | -2.31%
CC(C)(C)C(=O)Nc1ccc(S(=O)(=O)Nc2ccccn2)cc1 | -3.33%
CC1CCN(C(=O)CN2CCC(c3cccc(Nc4nccs4)n3)CC2)CC1 | -1.4%
COc1cc(NS(=O)(=O)c2ccc(NC(=O)c3ccc(-c4ccccc4)cc3)cc2)nc(OC)n1 | -2.57%
CC(C)(C)C(=O)N1CCOC(c2cccc(Nc3ncc(Cc4ccccc4)s3)n2)C1 (stereo unspecified) | -3.79%
CC(C)CC(C(=O)Nc1ccc(S(=O)(=O)Nc2ccccn2)cc1)N1C(=O)c2ccccc2C1=O (stereo unspecified) | 1.38%
CC1Cc2cc(CCC(=O)N3CCC(c4cccc(Nc5nccs5)n4)CC3)ccc2O1 (stereo unspecified) | -0.495%
Cc1cnc(Nc2cccc(C3CN(C(=O)C4(c5ccccc5)CCCC4)CCO3)n2)s1 (stereo unspecified) | -1.48%
CC(=O)N1CCC(Cc2cccc(Nc3nc(C)cs3)n2)CC1 | 10.6%
CCOCc1ccc(C(=O)N2CCOC(c3cccc(Nc4nccs4)n3)C2)cc1 (stereo unspecified) | 5.5%
Cc1cnc(Nc2cccc(C3CN(C(=O)CCc4ccc(S(N)(=O)=O)cc4)CCO3)n2)s1 (stereo unspecified) | 0.615%
COc1cc(NS(=O)(=O)c2ccc(NC(=O)COc3ccccc3C)cc2)nc(OC)n1 | -12.5%
Cc1nc(Nc2cccc(C3CCN(C(=O)C(C)C)CC3)n2)sc1C | 11.3%
O=C1CCC(N2C(=O)c3cccc(N4CCC(C(=O)O)CC4)c3C2=O)C(=O)N1 (stereo unspecified) | 7.4%
CC(=O)Oc1ccccc1N1C(=O)c2ccc(Oc3ccc(N)cc3)cc2C1=O | -0.21%
Cc1csc(Nc2cccc(C3CN(C(=O)Cn4nc(C)ccc4=O)CCO3)n2)n1 (stereo unspecified) | 1.32%
CC(=O)Nc1ccc(S(=O)(=O)N(C#N)c2nc(C)cc(C)n2)cc1 | 4.26%
Cc1nc(Nc2cccc(C3CCCN3C(=O)CCN3C(=O)CCNC3=O)n2)sc1C (stereo unspecified) | 0.56%
O=[N+]([O-])c1ccc(S(=O)(=O)Nc2nc3ccccc3nc2Nc2ccccc2)cc1 | 8.16%
